Test results reported in patent US11178870B2 (priority 2017, dated 2021).

What was measured:
Magnaporthe grisea = assay type: in vivo; conditions: Table 7, Test A
[1] = system: Colletotrichum orbiculare; conditions: 250 ppm sprayed (2.5 ml/pot) before inoculation; assessed 6 to 10 days after inoculation
Phytophthora infestans = assay type: in vivo; conditions: Table 7, Test F

Q: `CCn1c(-c2c(F)cccc2Cl)c(-n2cc(Cl)cn2)cc(Br)c1=O` [Compound 199] was tested. Which “control value, Test A (blast on rice)” value (Magnaporthe grisea) did it give?
A: L (L shows the control value of 50% or less)

Q: What about the “control value, Test H (anthracnose on cucumber)” value (shortened to “control value, Test H”) [1] of the same compound?
A: L (L shows the control value of 50% or less)

Q: And the “control value, Test F (late blight on tomato)” value (shortened to “control value, Test F”) (Phytophthora infestans)?
A: L (L shows the control value of 50% or less)

Q: What does the source list for `CCn1c(-c2c(F)cc(OCOC)cc2F)c(-n2cc(Cl)cn2)cc(Cl)c1=O` [Compound 203]?
A: control value, Test A (blast on rice) (Magnaporthe grisea): H (H shows the control value more than 50%); control value, Test H (anthracnose on cucumber) [1]: H (H shows the control value more than 50%); control value, Test F (late blight on tomato) (Phytophthora infestans): L (L shows the control value of 50% or less)

Q: `O=c1c(Cl)cc(-n2cc(Cl)cn2)c(-c2ccc(F)cc2F)n1CC(F)F` [Compound 212] was tested. Which “control value, Test A (blast on rice)” value (Magnaporthe grisea) did it give?
A: H (H shows the control value more than 50%)

Q: And the “control value, Test H” value [1]?
A: L (L shows the control value of 50% or less)

Q: What about the “control value, Test F” value (Phytophthora infestans) of the same compound?
A: L (L shows the control value of 50% or less)

Q: Which results are given for `CCn1c(-c2ccccc2Br)c(-n2ncc(C)c2Cl)cc(Cl)c1=O` [Compound 272]?
A: control value, Test A (blast on rice) (Magnaporthe grisea): H (H shows the control value more than 50%); control value, Test H (anthracnose on cucumber) [1]: H (H shows the control value more than 50%); control value, Test F (late blight on tomato) (Phytophthora infestans): L (L shows the control value of 50% or less)

Q: `CCN1C(=O)CCC(c2ccsc2Cl)=C1c1c(F)cccc1F` [Compound 295] was tested. Which “control value, Test A (blast on rice)” value (Magnaporthe grisea) did it give?
A: L (L shows the control value of 50% or less)

Q: And the “control value, Test H” value [1]?
A: L (L shows the control value of 50% or less)

Q: And the “control value, Test F” value (Phytophthora infestans)?
A: L (L shows the control value of 50% or less)

Q: `O=c1c(Cl)cc(-n2cc(Cl)cn2)c(-c2ccc(F)cc2Cl)n1CC(F)F` [Compound 234] was tested. Which “control value, Test A (blast on rice)” value (Magnaporthe grisea) did it give?
A: L (L shows the control value of 50% or less)

Q: And the “control value, Test H” value [1]?
A: L (L shows the control value of 50% or less)

Q: What about the “control value, Test F” value (Phytophthora infestans) of the same compound?
A: L (L shows the control value of 50% or less)

Q: Which “control value, Test A (blast on rice)” value (Magnaporthe grisea) does the source give for `O=c1ccc(-c2cc(Br)sc2Br)c(-c2c(F)cccc2F)n1CC(F)F` [Compound 324] here?
A: L (L shows the control value of 50% or less)

Q: With `O=c1c(Br)cc(-n2cc(Cl)cn2)c(-c2ccc(F)cc2F)n1CC(F)F` [Compound 214] as the compound, how does the “control value, Test A (blast on rice)” value (Magnaporthe grisea) read?
A: H (H shows the control value more than 50%)

Q: What about the “control value, Test H” value [1] of the same compound?
A: L (L shows the control value of 50% or less)

Q: And the “control value, Test F” value (Phytophthora infestans)?
A: L (L shows the control value of 50% or less)

Q: `CCn1c(-c2ccccc2C)c(-n2ncc(C)c2Cl)cc(Cl)c1=O` [Compound 244] was tested. Which “control value, Test A (blast on rice)” value (Magnaporthe grisea) did it give?
A: H (H shows the control value more than 50%)

Q: And the “control value, Test H” value [1]?
A: H (H shows the control value more than 50%)

Q: And the “control value, Test F” value (Phytophthora infestans)?
A: L (L shows the control value of 50% or less)

Q: What does the source list for `CCn1c(-c2c(F)cccc2F)c(-c2ccsc2Cl)cc(Br)c1=O` [Compound 299]?
A: control value, Test A (blast on rice) (Magnaporthe grisea): H (H shows the control value more than 50%); control value, Test H (anthracnose on cucumber) [1]: H (H shows the control value more than 50%); control value, Test F (late blight on tomato) (Phytophthora infestans): L (L shows the control value of 50% or less)

Q: Which results are given for `O=c1c(Br)cc(-n2cnc(Cl)c2Cl)c(-c2ccccc2Cl)n1CC(F)F` [Compound 236]?
A: control value, Test A (blast on rice) (Magnaporthe grisea): H (H shows the control value more than 50%); control value, Test H (anthracnose on cucumber) [1]: H (H shows the control value more than 50%); control value, Test F (late blight on tomato) (Phytophthora infestans): L (L shows the control value of 50% or less)

Q: For `CCn1c(-c2ccccc2Cl)c(-n2cnc(Cl)c2Cl)ccc1=O` [Compound 208], which “control value, Test A (blast on rice)” value (Magnaporthe grisea) is on record?
A: H (H shows the control value more than 50%)

Q: What about the “control value, Test H” value [1] of the same compound?
A: H (H shows the control value more than 50%)

Q: And the “control value, Test F” value (Phytophthora infestans)?
A: L (L shows the control value of 50% or less)
